According to PubChem BioAssay AID1963576 (National Center for Advancing Translational Sciences (NCATS), 2024):
About 60 (0.1%) of roughly 46,000 compounds were called active. Not shown: some 3% with an inconclusive outcome. The call rests on the fitted dose curve; in most records, active means well fitted inhibition curve with a large enough effect; inconclusive means small, poorly fitted or top-dose-only effect; inactive means no such curve, though single readings can be large or run the other way. The list shows a part of the results.

test: Primary qHTS assay for Inhibitors of ovarian cancer metastasis using an organotypic tumor microenvironment (TME) model.; further: nearly all actives have a fitted effect of over 65% in size;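 on activity change, negative = inhibition: plate controls were DMSO wells for no effect and tomatine positive control wells for full effect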; conditions: SKOV3ip1-GFP adhesion/invasion on 3D omental model, fluorescence; series mostly up to 45.8 µM; activity change, negative = inhibition: at the top concentration
Summary of the method: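 Primary human omental fibroblast/mesothelial 3D culture pre-formed 48 h. SKOV3ip1-GFP cells added with compounds (0.36-46 umol/L), incubated 2 h RT/16 h 37 C, fixed; GFP cells quantified at 488/509 nm.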

Activity change, negative = inhibition, inactive:
CCn1c(=O)cc(OCC(=O)N(C)c2ccc(OC)cc2)c2ccccc21 4.92%, CCCc1ccc(S(=O)(=O)N2CCC(c3nnc(-c4cccc(C)c4)o3)CC2)cc1 -8.01%, COc1ccc(Cl)cc1C(=O)Nc1ccc2nc(Nc3cccc(Cl)c3)cc(C)c2c1 8.48%, COc1ccc(OC)c(CNC(=O)c2ccc3nc(C(C)C)oc3c2)c1 -15%, COc1cc(OC)c(NC(=O)c2c(N3CCCC3=O)c3cc(C)ccc3n2C)cc1Cl -4.02%, CC(C)Oc1ccc(CNC(=O)c2ccc3c(c2)nc2n3CCCCC2)cc1 2.18%, Cc1ccccc1OCC(=O)Nc1nnc(S(=O)(=O)N2CCCC2)s1 -0.976%, CCOc1ccccc1NC(=O)Cn1ncc2c([nH]c3ccccc32)c1=O -6.68%, Cc1cc(=O)n2nc(N3CCC(C(=O)Nc4c(C)cccc4C)CC3)sc2n1 73%, CCOc1ccc(N2CC(c3nc4ccccc4n3CCCCOc3ccc(OC)cc3)CC2=O)cc1 (stereo unspecified) 2.15%, COc1ccc(C2=C(C)C(=O)N(Cc3ccc(C(=O)NC(C)c4ccccc4)cc3)S2(=O)=O)cc1 (stereo unspecified) -2.43%, Cc1cccc(OC(C)C(=O)Nc2nonc2-c2ccc(Br)cc2)c1C (stereo unspecified) 2.23%, COc1ccccc1CCN1COc2c(cc3c(C)c(C)c(=O)oc3c2C)C1 0.939%, O=C(NC1CCCCCC1)C1c2ccccc2C(=O)N1Cc1ccc(F)cc1 (stereo unspecified) 12.9%, Oc1c(C(c2ccccc2)N2CCOCC2)sc2nc(-c3ccco3)nn12 (stereo unspecified) -9.08%, CCN(CC)c1ccc(NC(=O)CN2CCN(c3ccccc3OC)CC2)cc1 6.39%, Nc1c(C(=O)Nc2cccc(F)c2)nnn1-c1cccc(C(F)(F)F)c1 -7.04%, Cc1cc(C)cc(NC(=O)c2sc3nc4n(c(=O)c3c2C)N=C(c2ccccc2)CS4)c1 -8.56%, O=C(NCCc1ccccc1)C1CCN(Cc2cc3ccccc3n2Cc2ccccc2)CC1 1.79%, Cc1ccc(NC(=O)CSc2nc(-c3cccs3)nc3cc(=O)[nH]n23)cc1C -40.5%, CCOc1ccccc1CN1CCc2nc(N3CCN(C)CC3)ncc2C1 -1.39%, Cc1ccc(CNC(=O)Cn2c(=O)cc(C)c3c(C)nn(-c4cccc(F)c4)c32)cc1 2.98%, O=C(Cn1ncc2c3ccccc3n(Cc3cccc(Cl)c3)c2c1=O)NCCCN1CCCCC1 -5.82%, CCOCCCNc1nc2c(S(=O)(=O)c3ccc(CC)cc3)nnn2c2ccc(Cl)cc12 -5.23%, O=C(Nc1ccc(C(=O)N2CCN(c3ccccc3F)CC2)cc1)c1nsc2ccccc12 -0.631%, CCOc1ccc(-c2cc(C(=O)NC(C)c3ccccc3)c3ccccc3n2)cc1 (stereo unspecified) -13.2%, CN1C(C(=O)c2ccccc2)=C(NC(=O)c2ccc(F)cc2)c2ccccc2S1(=O)=O 1.18%, COc1ccc(-c2onc(C)c2C)cc1S(=O)(=O)Nc1cccc(C#N)c1 -6.84%, O=C(NCCc1ccc(Cl)cc1)c1ccc2c(c1)nc1n2CCOC1 -8.4%, CCOc1ccc(C(=O)NCC(c2ccc(Cl)cc2)N2CCCCC2)cc1 (stereo unspecified) 0.735%, Nc1nc(=O)n([C@H]2C[C@H](O)[C@@H](CO)O2)cc1F 26.5%, CNC(=O)c1ccc(-c2cnc3ncc(Cc4ccc5ncccc5c4)n3n2)cc1F -6.77%, N#CNC(=NCCCCCCOc1ccc(Cl)cc1)Nc1ccncc1 -8.89%, CCCNC(=O)CSc1c(CCC)cnc2c1c(=O)n(C)c(=O)n2C -2.22%, CCCCNc1ccc(-c2nc(-c3ccccn3)no2)cc1[N+](=O)[O-] -2.66%, Cc1cc(C)c(NC(=O)C(C)n2c(=O)cc(-c3ccccc3)c3c(C)nn(C)c32)c(C)c1 (stereo unspecified) 0.987%, Cc1nnc2c(N3CCN(c4ccc(F)cc4)CC3)nc3ccc(C(=O)c4ccccc4)cc3n12 -3.21%, Cc1ccccc1C(=O)OCc1cc(=O)n2nc(C3CCCCC3)sc2n1 -1.07%, O=C(NCCc1csc(-c2cccnc2)n1)c1ccccc1 9.75%, O=C(CN1C(=O)C2(SCC(=O)N2c2cccc(F)c2)c2ccccc21)NCCc1ccccc1 (stereo unspecified) 35.7%, C[C@H]1[C@@H](OC(=O)CCC(=O)O)O[C@@H]2O[C@@]3(C)CC[C@@H]4[C@H](C)CC[C@@H]1[C@@]24OO3 -15.2%, CC1CCCCN1CCCNC(=O)CN1C(=O)CSc2ccc(S(=O)(=O)N3CCOCC3)cc21 (stereo unspecified) -10.7%, CCc1ccc(NC(=O)Nc2ccccc2OCc2cc(=O)n3ccccc3n2)cc1 -6.13%, COc1ccc(OC)c(NC(=O)Cn2ccn(-c3ccc(OC)c(OC)c3)c(=O)c2=O)c1 7.21%, Cc1cc(Cl)ccc1NC(=O)Cc1ccc(NC(=O)N2CCCCc3ccccc32)cc1 -2.66%, COC(=O)c1cccc(NC2=NS(=O)(=O)c3ccccc32)c1 1.11%, CCOC(=O)CNC(=O)N1CCCN(S(=O)(=O)c2ccc3c(ccn3CC)c2)CC1 -11.5%, Cc1ccc(-c2cc3ncc4c(n3n2)-c2cc(F)ccc2OC4)cc1 46.1%, CCOc1ccccc1NC(=O)N(Cc1ccc(C)o1)C1CCN(C(C)=O)CC1 0.757%, COc1ccc(C)c2sc(N3CCN(C(=O)c4cccc(F)c4)CC3)nc12 7.96%, COc1ccc(C)cc1NC(=O)C1CCN(S(=O)(=O)c2cc(Br)cc3c2N(C(C)=O)CC3)CC1 2.29%, CCOc1ccc(NC(=O)N2CCN(c3nnc(C)c4c(C)n(-c5ccccc5)nc34)CC2)cc1 4.46%, CCCc1nnc(NC(=O)c2nc(SCC)ncc2Cl)s1 -2.87%, CCOC(=O)C1=C(CS(=O)(=O)c2ccc(F)c(C)c2)NC(=O)NC1c1ccccc1OC (stereo unspecified) 6.19%, COc1ccc(C)cc1NC(=O)C1CCCN(c2ncnc3onc(C)c23)C1 (stereo unspecified) 0.325%, O=c1c(=O)n(-c2ccc(F)c(F)c2)ccn1Cc1ccc(F)cc1Cl 8.93%, CCOc1ccccc1NC(=O)CN(C)S(=O)(=O)c1ccc(C(=O)N2CCOCC2)s1 16.4%, CCC(C(=O)NCc1ccccc1OC)n1nc(C)n2c(cc3occc32)c1=O (stereo unspecified) 6.13%, Cc1oc(-c2ccccc2Cl)nc1CS(=O)(=O)CC(=O)NCc1ccc(F)cc1 9.85%, Cc1ccc2c(=O)cc(C(=O)Nc3sc4c(c3C(=O)NCC3CCCO3)CCC4)oc2c1 (stereo unspecified) 21.7%, O=C(CC1N=C2c3ccccc3N=C(SCc3ccccc3Cl)N2C1=O)NCCc1ccccc1 (stereo unspecified) -14%, CCOc1ccc(-n2nc3ccc(NC(=O)c4ccc(OC)c(Cl)c4)cc3n2)cc1 3.36%, CCCCn1c(=O)n(-c2cc(OC)ccc2OC)c(=O)c2c3c(sc21)CN(C(C)=O)CC3 10.5%, Cc1cc(C)cc(NC(=O)N2CCC(CN3CCOCC3)CC2)c1 -6.29%, O=C(CN1CCCN(Cc2ccccc2F)S1(=O)=O)Nc1ccc(F)c(Cl)c1 -0.175%, CC(C)NC(=O)N1[C@H](c2cccs2)[C@@H](C)C(=O)[C@@H](C)[C@@H]1c1cccs1 -1.99%, COc1ccc(C(=O)Nc2ccc(N(C)Cc3ccccc3)c(C(=O)O)c2)cc1 -7.68%, COC(=O)c1cc2oc(C)cc2n1CC(=O)Nc1ccc(C(C)C)cc1 -1.91%, CCc1cccc(C)c1NC(=O)Cn1nc(C)n2cccc2c1=O -5.41%

outcome, inactive:
CCn1c(=O)c2cc(C(=O)NCCCN3CCN(c4ccc(F)cc4)CC3)sc2c2ccccc21, COc1ccc(CNC(=O)CN2C(=O)CSc3ccc(S(=O)(=O)N(C)C)cc32)cc1, CC1CCN(S(=O)(=O)c2cc3c4c(c2)C(C)C(=O)N4CCC3)CC1 (stereo unspecified), Cc1cccc(N2C(=O)CSC23C(=O)N(CC(=O)Nc2cccc(Cl)c2)c2ccccc23)c1 (stereo unspecified), CCOC(=O)c1cc(C)n(CC2CCC(C(=O)Nc3cccc(Cl)c3)CC2)c1C (stereo unspecified), CCc1cccc(NC(=O)Cn2c(=O)n(CCC(=O)NCc3ccccc3Cl)c(=O)c3sccc32)c1, Cc1ccc(C)c(N2CCN(S(=O)(=O)c3ccc(-c4cnc(C5CC5)o4)cc3)CC2)c1, COc1ccc(COC(=O)C2=C(C)NC(=O)CC2c2cccc(Cl)c2Cl)cc1 (stereo unspecified), CCc1ccc(NS(=O)(=O)c2ccc(-c3cc(C)no3)cc2)cc1, Cc1cccc(C(=O)NC2(C(F)(F)F)N=C(c3ccccc3)N(C3CCCCC3)C2=O)c1 (stereo unspecified), CCOC(=O)N1CCc2c(sc3c2c(=O)n(-c2ccc(F)cc2)c(=O)n3CC(=O)c2ccc(Cl)cc2)C1, CC(=O)C1=C(c2ccc(F)cc2)N(C(C)=O)n2c(nnc2C2CCCCC2)S1, COc1ccc(-c2nnn3c2nc(NCc2ccc(C)cc2)c2ccccc23)cc1, CCOC(=O)c1cnc(N2CCN(c3cccc(C)c3C)CC2)c2ccccc12, Cc1ccc(Nc2c(-c3ccc(C)s3)nc3ccccn23)cc1, CCc1ccc(C(=O)c2cn(CC(=O)Nc3cccc(OC)c3)c3cc4c(cc3c2=O)OCO4)cc1, O=C(CSc1nnc(-c2ccc(Cl)cc2)o1)c1ccc([N+](=O)[O-])cc1, O=C(c1ccccc1Br)N(Cc1ccco1)Cc1ccco1, CCn1c(SCc2c(F)cccc2Cl)nc(=O)c2c(C(=O)OC)cc(C3CC3)nc21, CCc1nn2c(=O)cc(COC(=O)c3ccccc3)nc2s1, CCOC(=O)c1noc2ncn(CC(=O)Nc3cccc(C(F)(F)F)c3)c(=O)c12, CCc1nn(CC(=O)N2CCCCC2)c(=O)c2cc3occc3n12, Cc1cc(Nc2cccc(Cl)c2)nc2ccc(NC(=O)c3cncc(Br)c3)cc12, COc1ccc(-n2nc(C(=O)Nc3cc(C)ccn3)c3c4ccccc4n(C)c3c2=O)cc1, CCOC(=O)C1=C(CN2CCN(c3ccccc3OC)CC2)NC(=O)NC1c1ccccc1 (stereo unspecified), CCOC(=O)Cn1c(=O)n(CC2CCCO2)c2nc(-c3ccccc3)nc(C(N)=O)c21 (stereo unspecified), CCCCNC(=O)c1ccc2c(=O)n(Cc3ccc(OC)cc3)c(=O)[nH]c2c1
